# Some of the results follow.
# Legend:
# Test in all cases: glycan array binding signal (z-score within array); higher = stronger binding
# Settings in all cases: glycan notation: IUPAC condensed, linker removed
# [1] = biological target: Fuc(a1-2)[GalNAc(a1-3)]Gal(b1-3)GalNAc(a1-3)[Fuc(a1-2)]Gal(b1-4)GlcNAc
# Method in brief: (§1)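 Glycan array binding is given as a within-array Z-score, which can be read as non-binding when negative. The arrays, 3228 of them, came from the Consortium for Functional Glycomics database and were retained only where the protein sequence was available. Z-scores were averaged across arrays of the same protein sequence at different concentrations or buffers and across linkers.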
# [2] = biological target: Fuc(a1-2)[GalNAc(a1-3)]Gal(b1-3)GalNAc(b1-3)Gal(a1-4)Gal(b1-4)Glc
# Method in brief: as §1
# [3] = biological target: Fuc(a1-2)[GalNAc(a1-3)]Gal(b1-3)GlcNAc
# Method in brief: as §1
# [4] = biological target: Fuc(a1-2)[GalNAc(a1-3)]Gal(b1-3)GlcNAc(b1-2)Man(a1-3)[Fuc(a1-2)[GalNAc(a1-3)]Gal(b1-3)GlcNAc(b1-2)Man(a1-6)]Man(b1-4)GlcNAc(b1-4)GlcNAc
# Method in brief: as §1
# [5] = biological target: Fuc(a1-2)[GalNAc(a1-3)]Gal(b1-3)GlcNAc(b1-2)Man(a1-3)[Fuc(a1-2)[GalNAc(a1-3)]Gal(b1-3)GlcNAc(b1-2)Man(a1-6)]Man(b1-4)GlcNAc(b1-4)[Fuc(a1-6)]GlcNAc
# Method in brief: as §1
# [6] = biological target: Fuc(a1-2)[GalNAc(a1-3)]Gal(b1-3)GlcNAc(b1-3)GalNAc
# Method in brief: as §1
# [7] = biological target: Fuc(a1-2)[GalNAc(a1-3)]Gal(b1-3)GlcNAc(b1-6)GalNAc
# Method in brief: as §1
# [8] = biological target: Fuc(a1-2)[GalNAc(a1-3)]Gal(b1-4)Glc
# Method in brief: as §1
# [9] = biological target: Fuc(a1-2)[GalNAc(a1-3)]Gal(b1-4)GlcNAc
# Method in brief: as §1
# [10] = biological target: Fuc(a1-2)[GalNAc(a1-3)]Gal(b1-4)GlcNAc(b1-2)Man
# Method in brief: as §1
# [11] = biological target: Fuc(a1-2)[GalNAc(a1-3)]Gal(b1-4)GlcNAc(b1-2)Man(a1-3)[Fuc(a1-2)[GalNAc(a1-3)]Gal(b1-4)GlcNAc(b1-2)Man(a1-6)]Man(b1-4)GlcNAc(b1-4)GlcNAc
# Method in brief: as §1
# [12] = biological target: Fuc(a1-2)[GalNAc(a1-3)]Gal(b1-4)GlcNAc(b1-2)Man(a1-3)[Fuc(a1-2)[GalNAc(a1-3)]Gal(b1-4)GlcNAc(b1-2)Man(a1-6)]Man(b1-4)GlcNAc(b1-4)[Fuc(a1-6)]GlcNAc
# Method in brief: as §1
# [13] = biological target: Fuc(a1-2)[GalNAc(a1-3)]Gal(b1-4)GlcNAc(b1-3)Gal(b1-4)GlcNAc
# Method in brief: as §1
# [14] = biological target: Fuc(a1-2)[GalNAc(a1-3)]Gal(b1-4)GlcNAc(b1-3)Gal(b1-4)GlcNAc(b1-3)Gal(b1-4)GlcNAc
# Method in brief: as §1
# [15] = biological target: Fuc(a1-2)[GalNAc(a1-3)]Gal(b1-4)GlcNAc(b1-3)GalNAc
# Method in brief: as §1
# [16] = biological target: Fuc(a1-2)[GalNAc(a1-3)]Gal(b1-4)GlcNAc(b1-3)[Fuc(a1-2)[GalNAc(a1-3)]Gal(b1-4)GlcNAc(b1-6)]GalNAc
# Method in brief: as §1
# [17] = biological target: Fuc(a1-2)[GalNAc(a1-3)]Gal(b1-4)GlcNAc(b1-6)GalNAc
# Method in brief: as §1
# [18] = biological target: Fuc(a1-2)[GalNAc(a1-3)]Gal(b1-4)[Fuc(a1-3)]GlcNAc
# Method in brief: as §1
# [19] = biological target: Fuc(a1-2)[GalNAc(a1-3)]Gal(b1-4)[Fuc(a1-3)]GlcNAc(b1-3)GalNAc
# Method in brief: as §1
# [20] = biological target: Fuc(a1-2)[GalNAc(a1-4)]Gal(b1-4)GlcNAc
# Method in brief: as §1
# [21] = biological target: Fuc(a1-2)[GalNAc(b1-3)]Gal
# Method in brief: as §1
# Fuc(a1-3)GlcNAc = biological target: Fuc(a1-3)GlcNAc
# Method in brief: as §1
# [22] = biological target: Fuc(a1-3)[Gal(b1-4)]Glc6S
# Method in brief: as §1
# [23] = biological target: Fuc(a1-3)[Gal(b1-4)]GlcNAc
# Method in brief: as §1
# [24] = biological target: Fuc(a1-3)[Gal(b1-4)]GlcNAc(b1-2)Man
# Method in brief: as §1
# [25] = biological target: Fuc(a1-3)[Gal(b1-4)]GlcNAc(b1-2)Man(a1-3)[Fuc(a1-3)[Gal(b1-4)]GlcNAc(b1-2)Man(a1-6)]Man(b1-4)GlcNAc(b1-4)GlcNAc
# Method in brief: as §1
# [26] = biological target: Fuc(a1-3)[Gal(b1-4)]GlcNAc(b1-2)Man(a1-3)[Fuc(a1-3)[Gal(b1-4)]GlcNAc(b1-2)Man(a1-6)]Man(b1-4)GlcNAc(b1-4)[Fuc(a1-6)]GlcNAc
# Method in brief: as §1
# [27] = biological target: Fuc(a1-3)[Gal(b1-4)]GlcNAc(b1-3)Gal(b1-3)[Fuc(a1-4)]GlcNAc
# Method in brief: as §1
# [28] = biological target: Fuc(a1-3)[Gal(b1-4)]GlcNAc(b1-3)Gal(b1-4)[Fuc(a1-3)]GlcNAc
# Method in brief: as §1
# [29] = biological target: Fuc(a1-3)[Gal(b1-4)]GlcNAc(b1-3)Gal(b1-4)[Fuc(a1-3)]GlcNAc(b1-3)Gal(b1-4)[Fuc(a1-3)]GlcNAc
# Method in brief: as §1
# [30] = biological target: Fuc(a1-3)[Gal(b1-4)]GlcNAc(b1-3)GalNAc
# Method in brief: as §1
# [31] = biological target: Fuc(a1-3)[Gal(b1-4)]GlcNAc(b1-4)Gal(b1-4)[Fuc(a1-3)]GlcNAc
# Method in brief: as §1
# [32] = biological target: Fuc(a1-3)[Gal(b1-4)]GlcNAc(b1-4)Gal(b1-4)[Fuc(a1-3)]GlcNAc(b1-4)Gal(b1-4)[Fuc(a1-3)]GlcNAc
# Method in brief: as §1
# [33] = biological target: Fuc(a1-3)[Gal(b1-4)]GlcNAc(b1-6)GalNAc
# Method in brief: as §1
# [34] = biological target: Fuc(a1-3)[Gal(b1-4)]GlcNAc(b1-6)[Gal(b1-3)GlcNAc(b1-3)]Gal(b1-4)Glc
# Method in brief: as §1
# [35] = biological target: Fuc(a1-3)[Gal(b1-4)]GlcNAc6S
# Method in brief: as §1
# [36] = biological target: Fuc(a1-3)[Gal3S(b1-4)]Glc
# Method in brief: as §1
# [37] = biological target: Fuc(a1-3)[Gal3S(b1-4)]Glc6S
# Method in brief: as §1
# [38] = biological target: Fuc(a1-3)[Gal3S(b1-4)]GlcNAc
# Method in brief: as §1
# [39] = biological target: Fuc(a1-3)[Gal3S(b1-4)]GlcNAc6S
# Method in brief: as §1
# [40] = biological target: Fuc(a1-3)[GalNAc(b1-4)]Gal(b1-4)GlcNAc
# Method in brief: as §1
# [41] = biological target: Fuc(a1-3)[GalNAc(b1-4)]GlcNAc
# Method in brief: as §1
# [42] = biological target: Fuc(a1-3)[GalNAc(b1-4)]GlcNAc6S
# Method in brief: as §1
# Fuc(a1-4)GlcNAc = biological target: Fuc(a1-4)GlcNAc
# Method in brief: as §1
# Fuc(b1-3)GlcNAc = biological target: Fuc(b1-3)GlcNAc
# Method in brief: as §1
binder,measurement,setting,value
"AAA (Anguilla anguilla), Q7SIC1 (protein) VIPEGYTQENVAVRGKATQSAQLRGEHAANSEASNAIDGNRDSNFYHGSCTHSSGQANPWWRVDLLQVYTITSVTITNRGDCCGERISGAEINIGQHLASNGVNNPECSVIGSMATGETKTFHCPAPMIGRYVVTYLPTSESLHLCEVEVNVDKPAAA",glycan array binding signal (z-score),[1],-0.243
same,glycan array binding signal (z-score),[2],-0.138
same,glycan array binding signal (z-score),[3],-0.186
same,glycan array binding signal (z-score),[4],-0.276
same,glycan array binding signal (z-score),[5],-0.322
same,glycan array binding signal (z-score),[6],-0.182
same,glycan array binding signal (z-score),[7],-0.208
same,glycan array binding signal (z-score),[8],0.011
same,glycan array binding signal (z-score),[9],-0.12
same,glycan array binding signal (z-score),[10],-0.174
same,glycan array binding signal (z-score),[11],-0.115
same,glycan array binding signal (z-score),[12],-0.097
same,glycan array binding signal (z-score),[13],-0.217
same,glycan array binding signal (z-score),[14],0.148
same,glycan array binding signal (z-score),[15],-0.153
same,glycan array binding signal (z-score),[16],-0.257
same,glycan array binding signal (z-score),[17],-0.205
same,glycan array binding signal (z-score),[18],-0.135
same,glycan array binding signal (z-score),[19],0.131
same,glycan array binding signal (z-score),[20],1.72
same,glycan array binding signal (z-score),[21],-0.145
same,glycan array binding signal (z-score),Fuc(a1-3)GlcNAc,0.717
same,glycan array binding signal (z-score),[22],0.075
same,glycan array binding signal (z-score),[23],-0.204
same,glycan array binding signal (z-score),[24],-0.184
same,glycan array binding signal (z-score),[25],-0.234
same,glycan array binding signal (z-score),[26],-0.07
same,glycan array binding signal (z-score),[27],0.104
same,glycan array binding signal (z-score),[28],-0.21
same,glycan array binding signal (z-score),[29],0.016
same,glycan array binding signal (z-score),[30],-0.134
same,glycan array binding signal (z-score),[31],-0.249
same,glycan array binding signal (z-score),[32],-0.187
same,glycan array binding signal (z-score),[33],-0.044
same,glycan array binding signal (z-score),[34],-0.184
same,glycan array binding signal (z-score),[35],0.177
same,glycan array binding signal (z-score),[36],-0.009
same,glycan array binding signal (z-score),[37],1.44
same,glycan array binding signal (z-score),[38],-0.494
same,glycan array binding signal (z-score),[39],0.052
same,glycan array binding signal (z-score),[40],-0.513
same,glycan array binding signal (z-score),[41],0.193
same,glycan array binding signal (z-score),[42],-0.219
same,glycan array binding signal (z-score),Fuc(a1-4)GlcNAc,-0.189
same,glycan array binding signal (z-score),Fuc(b1-3)GlcNAc,-0.149

# Reference: the supplement of paper PMC8728848
